Six molecules from publication PMC4931317, “UtpA and UtpB chaperone nascent pre-ribosomal RNA and U3 snoRNA to initiate eukaryotic ribosome assembly” (Nature Communications, 2016) can be followed below.

The chains behind the UniProt entries cited, without tags or fusion partners.
UniProt P42945: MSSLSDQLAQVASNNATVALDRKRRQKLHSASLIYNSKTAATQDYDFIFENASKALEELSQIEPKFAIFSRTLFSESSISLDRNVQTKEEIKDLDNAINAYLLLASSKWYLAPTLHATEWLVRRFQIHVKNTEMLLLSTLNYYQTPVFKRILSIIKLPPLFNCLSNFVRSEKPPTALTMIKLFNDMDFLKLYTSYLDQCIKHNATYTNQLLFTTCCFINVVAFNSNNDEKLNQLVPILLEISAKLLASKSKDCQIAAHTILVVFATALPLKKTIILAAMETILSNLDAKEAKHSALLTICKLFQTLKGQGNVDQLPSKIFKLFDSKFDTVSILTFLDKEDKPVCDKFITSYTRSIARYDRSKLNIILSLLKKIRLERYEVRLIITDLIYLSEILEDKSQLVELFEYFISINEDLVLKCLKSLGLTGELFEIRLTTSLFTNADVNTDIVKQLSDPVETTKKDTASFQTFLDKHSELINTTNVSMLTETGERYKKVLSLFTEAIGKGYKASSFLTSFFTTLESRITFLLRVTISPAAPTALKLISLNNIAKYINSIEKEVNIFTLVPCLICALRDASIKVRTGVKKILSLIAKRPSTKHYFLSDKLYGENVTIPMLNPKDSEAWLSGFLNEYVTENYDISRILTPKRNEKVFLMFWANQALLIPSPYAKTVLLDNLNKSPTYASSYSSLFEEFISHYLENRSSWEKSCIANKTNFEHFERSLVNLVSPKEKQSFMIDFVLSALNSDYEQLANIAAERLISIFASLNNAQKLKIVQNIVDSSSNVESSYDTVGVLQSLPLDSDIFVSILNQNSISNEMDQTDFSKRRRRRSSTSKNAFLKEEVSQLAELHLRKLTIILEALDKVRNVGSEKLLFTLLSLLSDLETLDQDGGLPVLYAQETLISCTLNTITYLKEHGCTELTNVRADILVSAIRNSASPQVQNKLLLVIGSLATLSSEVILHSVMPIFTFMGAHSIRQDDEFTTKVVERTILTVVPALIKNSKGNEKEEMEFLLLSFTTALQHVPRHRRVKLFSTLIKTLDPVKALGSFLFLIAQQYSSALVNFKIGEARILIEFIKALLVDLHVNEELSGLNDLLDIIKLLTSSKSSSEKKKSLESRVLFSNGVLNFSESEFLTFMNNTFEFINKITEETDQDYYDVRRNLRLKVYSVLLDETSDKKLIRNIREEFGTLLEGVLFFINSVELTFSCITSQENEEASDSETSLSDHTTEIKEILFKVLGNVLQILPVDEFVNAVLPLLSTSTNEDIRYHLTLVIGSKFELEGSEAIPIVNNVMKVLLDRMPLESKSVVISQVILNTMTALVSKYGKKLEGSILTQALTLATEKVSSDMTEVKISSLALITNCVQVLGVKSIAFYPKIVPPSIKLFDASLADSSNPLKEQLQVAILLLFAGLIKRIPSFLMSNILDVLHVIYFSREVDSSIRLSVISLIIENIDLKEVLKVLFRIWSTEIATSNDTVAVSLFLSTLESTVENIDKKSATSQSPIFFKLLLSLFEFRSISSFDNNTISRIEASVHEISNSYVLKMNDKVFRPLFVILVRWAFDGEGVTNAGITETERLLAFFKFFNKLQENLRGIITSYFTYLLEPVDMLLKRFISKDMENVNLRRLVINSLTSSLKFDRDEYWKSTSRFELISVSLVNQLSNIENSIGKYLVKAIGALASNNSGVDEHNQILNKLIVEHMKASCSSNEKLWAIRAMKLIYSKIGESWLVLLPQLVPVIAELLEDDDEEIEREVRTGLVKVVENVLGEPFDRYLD

These are yes or no findings as the source states them, for the method shown. In cells and extracts the contact can be indirect. Some results given as binding are weak or reduced against the parent protein; the word gives no strength. For part of these data: Where a sequence is shown, tags or fusion partners need not be part of it.

First the molecules themselves.
T1: Utp21-3myc-TEV-mCherry-Flag (S. cerevisiae) (UniProt Q06078)
T1 sequence: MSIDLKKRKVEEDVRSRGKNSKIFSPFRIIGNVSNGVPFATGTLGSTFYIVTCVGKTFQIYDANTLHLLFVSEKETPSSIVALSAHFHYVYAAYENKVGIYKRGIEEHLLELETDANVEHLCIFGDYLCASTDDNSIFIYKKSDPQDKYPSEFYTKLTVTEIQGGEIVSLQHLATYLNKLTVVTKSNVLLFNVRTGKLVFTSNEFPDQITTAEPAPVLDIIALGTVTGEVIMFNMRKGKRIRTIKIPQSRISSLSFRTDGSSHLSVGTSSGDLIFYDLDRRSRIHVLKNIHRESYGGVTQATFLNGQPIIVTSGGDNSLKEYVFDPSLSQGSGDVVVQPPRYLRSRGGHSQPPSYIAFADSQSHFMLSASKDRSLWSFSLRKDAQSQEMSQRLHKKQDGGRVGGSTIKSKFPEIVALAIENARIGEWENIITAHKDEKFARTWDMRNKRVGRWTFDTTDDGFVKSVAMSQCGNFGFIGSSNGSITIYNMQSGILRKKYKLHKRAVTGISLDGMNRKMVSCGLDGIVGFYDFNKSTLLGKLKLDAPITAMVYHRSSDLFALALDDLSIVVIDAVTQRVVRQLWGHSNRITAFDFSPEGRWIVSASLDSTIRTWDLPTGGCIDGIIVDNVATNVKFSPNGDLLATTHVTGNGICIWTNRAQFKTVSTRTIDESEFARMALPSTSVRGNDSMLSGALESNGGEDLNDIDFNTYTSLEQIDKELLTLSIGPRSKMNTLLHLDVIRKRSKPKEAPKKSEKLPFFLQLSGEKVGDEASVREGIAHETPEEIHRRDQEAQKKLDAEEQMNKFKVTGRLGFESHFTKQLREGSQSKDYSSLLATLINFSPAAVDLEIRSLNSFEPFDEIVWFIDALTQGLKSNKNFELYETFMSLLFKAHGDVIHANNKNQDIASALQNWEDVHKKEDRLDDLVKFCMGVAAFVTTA

B1: Utp8 (natural protein, S. cerevisiae, UniProt P53276 1-713, looked up)
chain: MPSLSQPFRLATLPKIASLSNFSLQADYVQVADGTFNESTNNITLGISGSSISQYIINPTPKLTFDYPIPSTNIITACNAEKGQANIDGNIEASTDDEANNEKTINTQKKRNVEIWAFGLMVNKGNYTLNVITKALEDTTDTSNDHLSESDIDNKAYTGSDEFLSQYKIKAKAKVMSIKIDTKNSLVIAILQNGLIEIFDFKLTLLHSFDISYDNLKYAKWFTENGTEYVFVLCPLQDDKVCYKLLELTDCGSGESSPIKELSSTIIEGFSFENSKLCYQFGKLYKLNQGKIYIYSLPHCQLQQVIEFPMVDKLSPGDDLISFQPVSVNRVLLTVNNVIYLLDLLHCSTLSQRELTHVKTFQLLKSAVINSEKSHNSKTIAIGISTKNGPNPTSSLEIINIDVGTNTLKDSLGKSFQVGNNDSSVILKPLFDDKDINDKRVKCNDVSGDSSVPVLHCNEVIEKLSALQDNDITSFDDIFFKELKIKEEHYTEKDRYISDPGFLNKVLDLIFGKFSGNDYPKTLTFLLTHPLFPLSRTRNLLSLLRDQPRLFKQAIVTCPNLPLNELLEELFSIRNRELLLDISFRILQDFTRDSIKQEMKKLSKLDVQNFIEFITSGGEDSSPECFNPSQSTQLFQLLSLVLDSIGLFSLEGALLENLTLYIDKQVEIAERNTELWNLIDTKGFQHGFASSTFDNGTSQKRALPTYTMEYLDI
notes: Utp8, S. cerevisiae, subunit of UtpA; No tag is named for it in either strain; strains are in Supplementary Data 1; source: endogenous, S. cerevisiae YSK32, co-purified with Utp10-GFP; overexpressed (galactose promoter) in S. cerevisiae YSK122, co-purified with Utp15-mCherry
B2: Utp5 (natural protein, S. cerevisiae, UniProt Q04177 1-643, looked up)
chain: MDSPVLQSAYDPSGQYLCYVTVALDKQRVGVQPTQRATSSGVDTVWNENFLYLEDSKLKVTCLKWVNLASSDTVAIILGMNNGEIWLYSVLANEVTYKFTTGNSYEIKDIDLMGNQLWCIDSSDAFYQFDLLQFKLLQHFRINNCVQLNKLTIVPAGDSVAQLLVASHSISLIDIEEKKVVMTFPGHVSPVSTLQVITNEFFISGAEGDRFLNVYDIHSGMTKCVLVAESDIKELSHSGQADSIAVTTEDGSLEIFVDPLVSSSTKKRGNKSKKSSKKIQIVSKDGRKVPIYNAFINKDLLNVSWLQNATMPYFKNLQWREIPNEYTVEISLNWNNKNKSADRDLHGKDLASATNYVEGNARVTSGDNFKHVDDAIKSWERELTSLEQEQAKPPQANELLTETFGDKLESSTVARISGKKTNLKGSNLKTATTTGTVTVILSQALQSNDHSLLETVLNNRDERVIRDTIFRLKPALAVILLERLAERIARQTHRQGPLNVWVKWCLIIHGGYLVSIPNLMSTLSSLHSTLKRRSDLLPRLLALDARLDCTINKFKTLNYEAGDIHSSEPVVEEDEDDVEYNEELDDAGLIEDGEESYGSEEEEEGDSDNEEEQKHTSSKQDGRLETEQSDGEEEAGYSDVEME
notes: Utp5, S. cerevisiae, subunit of UtpA; No tag is named for it in either strain; strains are in Supplementary Data 1; source: endogenous, S. cerevisiae YSK32, co-purified with Utp10-GFP; overexpressed (galactose promoter) in S. cerevisiae YSK122, co-purified with Utp15-mCherry
B3: Utp12 (Dip2), endogenous (protein, UniProt Q12220 1-943)
chain: MVKSYQRFEQAAAFGVIASNANCVWIPASSGNSNGSGPGQLITSALEDVNIWDIKTGDLVSKLSDGLPPGASDARGAKPAECTYLEAHKDTDLLAVGYADGVIKVWDLMSKTVLLNFNGHKAAITLLQFDGTGTRLISGSKDSNIIVWDLVGEVGLYKLRSHKDSITGFWCQGEDWLISTSKDGMIKLWDLKTHQCIETHIAHTGECWGLAVKDDLLITTGTDSQVKIWKLDIENDKMGGKLTEMGIFEKQSKQRGLKIEFITNSSDKTSFFYIQNADKTIETFRIRKEEEIARGLKKREKRLKEKGLTEEEIAKSIKESYSSFILHPFQTIRSLYKIKSASWTTVSSSKLELVLTTSSNTIEYYSIPYEKRDPTSPAPLKTHTIELQGQRTDVRSIDISDDNKLLATASNGSLKIWNIKTHKCIRTFECGYALTCKFLPGGLLVILGTRNGELQLFDLASSSLLDTIEDAHDAAIWSLDLTSDGKRLVTGSADKTVKFWDFKVENSLVPGTKNKFLPVLKLHHDTTLELTDDILCVRVSPDDRYLAISLLDNTVKVFFLDSMKFYLSLYGHKLPVLSIDISFDSKMIITSSADKNIKIWGLDFGDCHKSLFAHQDSIMNVKFLPQSHNFFSCSKDAVVKYWDGEKFECIQKLYAHQSEVWALAVATDGGFVVSSSHDHSIRIWEETEDQVFLEEEKEKELEEQYEDTLLTSLEEGNGDDAFKADASGEGVEDEASGVHKQTLESLKAGERLMEALDLGIAEIEGLEAYNRDMKLWQRKKLGEAPIKPQGNAVLIAVNKTPEQYIMDTLLRIRMSQLEDALMVMPFSYVLKFLKFIDTVMQNKTLLHSHLPLICKNLFFIIKFNHKELVSQKNEELKLQINRVKTELRSALKSTEDDLGFNVQGLKFVKQQWNLRHNYEFVDEYDQQEKESNSARKRVFGTVI
B4: Utp1 (Pwp2), endogenous (protein, UniProt P25635 1-923)
chain: MKSDFKFSNLLGTVYRQGNITFSDDGKQLLSPVGNRVSVFDLINNKSFTFEYEHRKNIAAIDLNKQGTLLISIDEDGRAILVNFKARNVLHHFNFKEKCSAVKFSPDGRLFALASGRFLQIWKTPDVNKDRQFAPFVRHRVHAGHFQDITSLTWSQDSRFILTTSKDLSAKIWSVDSEEKNLAATTFNGHRDYVMGAFFSHDQEKIYTVSKDGAVFVWEFTKRPSDDDDNESEDDDKQEEVDISKYSWRITKKHFFYANQAKVKCVTFHPATRLLAVGFTSGEFRLYDLPDFTLIQQLSMGQNPVNTVSVNQTGEWLAFGSSKLGQLLVYEWQSESYILKQQGHFDSTNSLAYSPDGSRVVTASEDGKIKVWDITSGFCLATFEEHTSSVTAVQFAKRGQVMFSSSLDGTVRAWDLIRYRNFRTFTGTERIQFNCLAVDPSGEVVCAGSLDNFDIHVWSVQTGQLLDALSGHEGPVSCLSFSQENSVLASASWDKTIRIWSIFGRSQQVEPIEVYSDVLALSMRPDGKEVAVSTLKGQISIFNIEDAKQVGNIDCRKDIISGRFNQDRFTAKNSERSKFFTTIHYSFDGMAIVAGGNNNSICLYDVPNEVLLKRFIVSRNMALNGTLEFLNSKKMTEAGSLDLIDDAGENSDLEDRIDNSLPGSQRGGDLSTRKMRPEVRVTSVQFSPTANAFAAASTEGLLIYSTNDTILFDPFDLDVDVTPHSTVEALREKQFLNALVMAFRLNEEYLINKVYEAIPIKEIPLVASNIPAIYLPRILKFIGDFAIESQHIEFNLIWIKALLSASGGYINEHKYLFSTAMRSIQRFIVRVAKEVVNTTTDNKYTYRFLVSTDGSMEDGAADDDEVLLKDDADEDNEENEENDVVMESDDEEGWIGFNGKDNKLPLSNENDSSDEEENEKELP
B5: Utp18, endogenous (protein, UniProt P40362 1-594)
chain: MTMATTAMNVSVPPPDEEEQLLAKFVFGDTTDLQENLAKFNADFIFNEQEMDVEDQEDEGSESDNSEEDEAQNGELDHVNNDQLFFVDDGGNEDSQDKNEDTMDVDDEDDSSSDDYSEDSEEAAWIDSDDEKIKVPILVTNKTKKLRTSYNESKINGVHYINRLRSQFEKIYPRPKWVDDESDSELDDEEDDEEEGSNNVINGDINALTKILSTTYNYKDTLSNSKLLPPKKLDIVRLKDANASHPSHSAIQSLSFHPSKPLLLTGGYDKTLRIYHIDGKTNHLVTSLHLVGSPIQTCTFYTSLSNQNQQNIFTAGRRRYMHSWDLSLENLTHSQTAKIEKFSRLYGHESTQRSFENFKVAHLQNSQTNSVHGIVLLQGNNGWINILHSTSGLWLMGCKIEGVITDFCIDYQPISRGKFRTILIAVNAYGEVWEFDLNKNGHVIRRWKDQGGVGITKIQVGGGTTTTCPALQISKIKQNRWLAVGSESGFVNLYDRNNAMTSSTPTPVAALDQLTTTISNLQFSPDGQILCMASRAVKDALRLVHLPSCSVFSNWPTSGTPLGKVTSVAFSPSGGLLAVGNEQGKVRLWKLNHY
B6: Utp13, endogenous (protein, UniProt Q05946 1-817)
chain: MDLKTSYKGISLNPIYAGSSAVATVSENGKILATPVLDEINIIDLTPGSRKILHKISNEDEQEITALKLTPDGQYLTYVSQAQLLKIFHLKTGKVVRSMKISSPSYILDADSTSTLLAVGGTDGSIIVVDIENGYITHSFKGHGGTISSLKFYGQLNSKIWLLASGDTNGMVKVWDLVKRKCLHTLQEHTSAVRGLDIIEVPDNDEPSLNLLSGGRDDIINLWDFNMKKKCKLLKTLPVNQQVESCGFLKDGDGKRIIYTAGGDAIFQLIDSESGSVLKRTNKPIEELFIIGVLPILSNSQMFLVLSDQTLQLINVEEDLKNDEDTIQVTSSIAGNHGIIADMRYVGPELNKLALATNSPSLRIIPVPDLSGPEASLPLDVEIYEGHEDLLNSLDATEDGLWIATASKDNTAIVWRYNENSCKFDIYAKYIGHSAAVTAVGLPNIVSKGYPEFLLTASNDLTIKKWIIPKPTASMDVQIIKVSEYTRHAHEKDINALSVSPNDSIFATASYDKTCKIWNLENGELEATLANHKRGLWDVSFCQYDKLLATSSGDKTVKIWSLDTFSVMKTLEGHTNAVQRCSFINKQKQLISCGADGLIKIWDCSSGECLKTLDGHNNRLWALSTMNDGDMIVSADADGVFQFWKDCTEQEIEEEQEKAKLQVEQEQSLQNYMSKGDWTNAFLLAMTLDHPMRLFNVLKRALGESRSRQDTEEGKIEVIFNEELDQAISILNDEQLILLMKRCRDWNTNAKTHTIAQRTIRCILMHHNIAKLSEIPGMVKIVDAIIPYTQRHFTRVDNLVEQSYILDYALVEMDKLF

One experiment deals with T2, Utp10-3C-GFP (S. cerevisiae, UniProt P42945 1-1769).
T2 construct: Utp10, S. cerevisiae, subunit of UtpA (200 kDa); GFP is joined through a 3C protease site; it holds the protein on the beads in a1-a3 and is cleaved off by 3C on elution, so it is absent in the SEC step and in the DSS cross-linking (a6); also called Utp10-GFP; Utp10-sbp-H14-3C-GFP; source: S. cerevisiae YSK32, C-terminal tag integrated in the genome, endogenous level; captured from lysate on …
In words: pull-down; UtpA held via Utp10-GFP on anti-GFP nanobody sepharose (purified at 200 mM NaCl), then incubated 7 h at 4 °C in buffer with 800 mM NaCl; 3C elution; Coomassie-stained SDS-PAGE.
Consider B1, for which the binding entry is recorded as “no binding (condition: 800 mM NaCl)”.

Regarding B2, the binding result is given as “no binding (condition: 800 mM NaCl)”.

The target of the next experiment is T1, Utp21-3myc-TEV-mCherry-Flag (S. cerevisiae). Nature of the experiment: pull-down + SEC; endogenous UtpA-independent UtpB from yeast lysate captured via Utp21-mCherry on anti-mCherry nanobody sepharose (buffer K: 100 mM CHES-NaOH pH 9, 300 mM potassium acetate, 5 mM EDTA, 1 mM DTT), TEV elution, Superose 6 Increase; peak fraction on SDS-PAGE.
On to B3, for which the binding entry was “binds”. For B4, the binding result is “binds”. For the molecule B5, the binding result is on record as “binds”.

As for B6, the binding result is listed as “binds”.
